Experimental data published in paper PMC12136788.
Some of the results follow.

T1: UNK ZnF1-3 (human, UniProt Q9C0B0 31-174)
T1 sequence: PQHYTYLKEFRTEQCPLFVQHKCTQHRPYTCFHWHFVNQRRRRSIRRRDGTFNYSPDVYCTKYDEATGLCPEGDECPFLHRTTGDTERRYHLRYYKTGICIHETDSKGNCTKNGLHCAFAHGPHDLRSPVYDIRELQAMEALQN

B1: chr7:7679991:7679992:-_ENSG00000106399_ENST00000396682|hu_hu|hu_hu_hu_mus_False|18_58 (ssRNA)
RNA: GGGAGUUCUACAGUCCGACGAUCUGGGAUGAAUCUUUUCCAGCUUCCCCACGAAGCACACGGGCCGGUCGAUAUACUGAGCUAGCAUGCUGGCGUUGACGCGCGCUUUGGGGAGCUCCAUCAUGUCCUCCAUGAUUCUGCCGCCAACAGAGGAUUGAGCAUCA
B2: 72251890_72264378_143_CDS_ENSG00000157107_ENST00000430046|human|control|control (ssRNA)
RNA: GGGAGUUCUACAGUCCGACGAUCCUGUCCAUGUUUCAUAUUAUGGUAGAGGACAUCAAAGCCACUAUUUUUUUCCCCCCAAAAAUUCUCGACGAAAUACGCCAUGACCAUCGUGCCGCCGCCGCGCCGGGUUCCGCGUCCGCGCAACAGAGGAUUGAGCAUCA
B3: chr10:36853299:36853300:-_ENSMUSG00000069662_ENSMUST00000092584|mus_mus|FALSE|FALSE (ssRNA)
RNA: GGGAGUUCUACAGUCCGACGAUCUAUUAACAUUUUUUUUUCCAUUAGAAAACAACAGGAUGUACAAAACUUUGGAUGAAAAGUAUGUCAAAUUGCAUUUAGCCACUUGGAGGAAAAUCCACCGCUCCAUCAAUACCACCCAAACAACAGAGGAUUGAGCAUCA
B4: 155448232_155448352_4847_CDS_ENSG00000116539_ENST00000392403|human|control|control (ssRNA)
RNA: GGGAGUUCUACAGUCCGACGAUCACCAUAGGCCAUCUCAGGAGGAACACUGGGGUAGGUACUCAUGGAAAGGAGGGGAGUCCUGCUGGUUGUAAGAAAGGCCUCCUGUCGAAGUAGCUUAUGCUUUUUCUUAUGGUAUUUGGCCAACAGAGGAUUGAGCAUCA
B5: 169710605_169710725_1072_CDS_ENSG00000008952_ENST00000337002|human|control|control (ssRNA)
RNA: GGGAGUUCUACAGUCCGACGAUCUCCACUACUGUGCUGGGAUCGAUCAUCUUCCCUCCUGUCACUGUCCGUGUCUGAAUGCCGUUCUCCCCCCGAGCCUUCUGUUCCAUGAUUUCCUGGUCCUACUUUCCCCUCCUCAUCUUCCAACAGAGGAUUGAGCAUCA
B6: chr2:103900078:103900079:+_ENSMUSG00000027180_ENSMUST00000028603|mus_hu|FALSE|FALSE (ssRNA)
RNA: GGGAGUUCUACAGUCCGACGAUCCUCCUCCUCCUCUUCUUCCAUCUCUUCAUAUUCAUCAGGACCCAUUUCCAAUCGGGCUAUAGACACCCUGAAUGUUGGACAUGCCAUAUGGAAUCGGGGAAUGGCAACAUUAAAGAUCUUCAACAGAGGAUUGAGCAUCA
B7: chr14:78183846:78183847:+_ENSG00000119705_ENST00000557342|hu_hu|hu_hu_hu_mus_False|28_108 (ssRNA)
RNA: GGGAGUUCUACAGUCCGACGAUCUCUGUCUCAAAAAUCUUCAUCAGAUGUUUGAGCUCCGUGCAAAGCCUUUGCUCUUUGAGCUUGAACGUGGAUCUAUGGGAGGGCUAUAAUAUGCAGAAAAGGUAAUUUUUUUUUUAAAGACAACAGAGGAUUGAGCAUCA
B8: chr2:162087991:162087992:+_ENSG00000136560_ENST00000392749|hu_mus|FALSE|FALSE (ssRNA)
RNA: GGGAGUUCUACAGUCCGACGAUCCUUUCCUGGGGAAUCCAGUGAGGGAAAAGGUGCGUCAGGCGGGUCUUGAAGUGGGAACGUAUUUACAUAGAACACAUUGUGGUCUCCAGCUGGCAAACACGUCGCUCUAAGAUUUGAGGGCAACAGAGGAUUGAGCAUCA
B9: chr4:140265382:140265383:+_ENSG00000164134_ENST00000296543|hu_hu|FALSE|FALSE (ssRNA)
RNA: GGGAGUUCUACAGUCCGACGAUCUUCUCUAUAGAGACCUGCUUCCCGAAGAACUUGAUUCUGAUAUAAGAGUAGUUCACUAUAUUCAUAAUCCACCUUGUCAGGGGAUGUCUGUUGUGUUUUCCUAAAUUCUUCUAAAAUCUUCAACAGAGGAUUGAGCAUCA
B10: chr8:127197416:127197417:-_ENSMUSG00000037300_ENSMUST00000118134|mus_hu|motif|central (ssRNA)
RNA: GGGAGUUCUACAGUCCGACGAUCUUUGGCGACUUUGCUAAAGGCCUCUGAACCAGGGGCUGUCAUAGCUUCAAAGUCGACGGACUUCCCUUUGGGAAUUUUUCCUGCUACUUCUUUUCCACUUGCCAUCAGUGCUCCCACGAUCAACAGAGGAUUGAGCAUCA
B11: 93805653_93805773_2646_3pUTR_ENSMUSG00000059474_ENSMUST00000107854|mouse|control|control (ssRNA)
RNA: GGGAGUUCUACAGUCCGACGAUCGUUUCUGUACAAACAGUUAAAUGGGCUGCAAUAAAACGUCAGCGAGCACAAUUAAUGACCCCUUCCGUGAUCUACAUGGUGAUGAGCCCUCUGUGAGGGGUUCAGUUGCAUAUUUUCGCACAACAGAGGAUUGAGCAUCA
B12: 155324285_155324405_7610_CDS_ENSG00000116539_ENST00000392403|human|control|control (ssRNA)
RNA: GGGAGUUCUACAGUCCGACGAUCUCGGCAGAUCCCAUUCCAACGGGUAUAUAAUGAUGCUGAGUGAAUAUUAUCACUGGUGUGCUUUACUUCCUCCUGUUUUUGACGAAUCUUCUCCCAGUUUCGGACCAAGAAUACAUGAUGCAACAGAGGAUUGAGCAUCA
B13: chr14:78183846:78183847:+_ENSG00000119705_ENST00000557342|hu_hu|hu_hu_hu_mus_False|38_58 (ssRNA)
RNA: GGGAGUUCUACAGUCCGACGAUCUCUCAGAAAUCUUUCUUCAUCAGAUGUUUGAGCUCCGUGCAAAGCCUUUGCUCUUCUAGUGUGAACGUGGAUCUUUACUCCAUAAAGCACUGUCAGAAAAGGUAAUUUUUUUUUUAAAGACAACAGAGGAUUGAGCAUCA
B14: chr8:126034020:126034021:+_ENSG00000104549_ENST00000265896|hu_hu|motif|central (ssRNA)
RNA: GGGAGUUCUACAGUCCGACGAUCCUUAAAGCAAAAAUACACGGCAUAGAUUGCAACAGCAAAGAAGUGUCCAAUUAAAACGGGAGGGUUAGGAGACAAUACAGAAAGCAGCCCAACAGGACCCGCAACACAUUCGCCACCAAGCAACAGAGGAUUGAGCAUCA
B15: chr8:121473430:121473431:+_ENSG00000172167_ENST00000305949|hu_hu|motif|central (ssRNA)
RNA: GGGAGUUCUACAGUCCGACGAUCAAUAUCCGACAUAUAGCAGGAGGGUAGAUCUGAUAAUUUUAUCAUCUGCACAAAUUCGGAAGCAGGGCCAUAAUAAUGGAAAACCUUUGGCAAAAUAUUCUUAUCCUUUGAUGGUAUGAUCAACAGAGGAUUGAGCAUCA
B16: chr3:138289918:138289919:-_ENSG00000114107_ENST00000484888|hu_mus|FALSE|FALSE (ssRNA)
RNA: GGGAGUUCUACAGUCCGACGAUCGUGUGCCGCUCGGUUCUGUUCUAGCUGAAGUUCACUUUUCAGUUGCUGGUUGGUCUCUAUGAGCUCCCGUAUCAUGCUCUGCUGACGUGUUGUUUCUUCCAUCAACGUUUUCAAAAUCUGCAACAGAGGAUUGAGCAUCA
B17: chr1:52222005:52222006:-_ENSMUSG00000026103_ENSMUST00000114513|mus_hu|FALSE|FALSE (ssRNA)
RNA: GGGAGUUCUACAGUCCGACGAUCACAAUAGAAAAAUCACAAGAAAUCUGGAAUGAUCCAGUGGUCCCCCAAGGAGGACAAAUCUCUUGAUGCAGACUCUUAAUGACAGGCUUGGAAACAAAUGUUUGUUAGUUGUAGCAGUUCCAACAGAGGAUUGAGCAUCA
B18: chr1:32384726:32384727:-_ENSG00000184007_ENST00000602725|perfect_dup|motif|central (ssRNA)
RNA: GGGAGUUCUACAGUCCGACGAUCAGGAGGAAAUCAAUAAAUCUUGAAAUGUUCCGCAGCAGAAAACAUUAAAAAGACCACGGAAAUGCCUAUUAUUGAUCACUAUUUUCUCUAUUCAACUUGCUUGUUCCUUAGGAAGCUUCUCAACAGAGGAUUGAGCAUCA
B19: chr6:47494509:47494510:-_ENSMUSG00000029687_ENSMUST00000081721|mus_mus|FALSE|FALSE (ssRNA)
RNA: GGGAGUUCUACAGUCCGACGAUCCCCAAUUAGCCUAGCAAUGGCACAAAAGUUAUCGUAGUAAGUACCAAUGAGGACUCUAAACAUGGAGGCUUCAGCACCACUCCACUCCACAUUCUCAGGAGGUUCAAUAUUUGGCUUCAUCAACAGAGGAUUGAGCAUCA
B20: chr4:129192164:129192165:+_ENSMUSG00000047945_ENSMUST00000062356|mus_mus|FALSE|FALSE (ssRNA)
RNA: GGGAGUUCUACAGUCCGACGAUCGGAAUCACCCCCACCCUCCUUCCGAUUUCUCUUGAAGGACAGGCCACUCAAUUUGAAAGGCUUCUUGAAAGAGAAUUUCUUCUUCUUCUUGGGGGUCUCCUUGGGGGCGACCUCCCCCUUCAACAGAGGAUUGAGCAUCA
B21: chr6:38652254:38652255:-_ENSG00000124767_ENST00000373365|hu_hu|hu_hu_hu_mus_False|78_98 (ssRNA)
RNA: GGGAGUUCUACAGUCCGACGAUCCGAGAACUUCAUAAUGGGAAAAUCAAGCUUCUGGAUUAGCGUCAGUCCAAGAACCCUCGUAUAAAAAUCCAGGGACUUCUUAGGAUCCUUAAUUCUUAGCAUCGUUUGCUGCAGUAGAAACAACAGAGGAUUGAGCAUCA
B22: chr19:60011576:60011577:-_ENSMUSG00000040022_ENSMUST00000171986|mus_hu|motif|central (ssRNA)
RNA: GGGAGUUCUACAGUCCGACGAUCUUUUGCUGUAAAUGGAUUGGUUGACUCAUAAUCAAAAUAGUCCUGGCGAUUUUCACGGAAUGCAUUAGGUGAUUUCAAGUCACAAGGGCUAUCAGAUCCCCCAUUGUUAAGUUUAUCAGACAACAGAGGAUUGAGCAUCA

Biological target: T1, UNK ZnF1-3
Assay: nsRBNS (natural sequence RNA bind-n-seq); RBNS binding buffer (assumed for nsRBNS): 25 mM Tris pH 7.5, 150 mM KCl, 3 mM MgCl2, 0.01% Triton X-100, 500 ug/ml BSA, 20 U/ml SUPERase-In, 4 C; UNK is unkempt and MSI1 is Musashi-1; names of the RNAs are library labels; protein concentration not given here; high values mean tight binding

Binder	binding signal
B1	0.939 enrichment R
B2	1.67 enrichment R
B3	1.49 enrichment R
B4	1.28 enrichment R
B5	0.815 enrichment R
B6	0.677 enrichment R
B7	1.61 enrichment R
B8	1.44 enrichment R
B9	0.811 enrichment R
B10	0.516 enrichment R
B11	0.85 enrichment R
B12	0.646 enrichment R
B13	0.619 enrichment R
B14	1.79 enrichment R
B15	1.32 enrichment R
B16	0.338 enrichment R
B17	1.08 enrichment R
B18	1.03 enrichment R
B19	1.52 enrichment R
B20	0.663 enrichment R
B21	1.21 enrichment R
B22	0.751 enrichment R
